# Assay results from publication PMC4336329 (PLoS ONE, 2015).
# Out of some 310,000 compounds screened, about 2,200 (0.71%) showed an effect of 50% or more. The effect is printed as a negative number. The list shows a part of the results.
# Target: human ether-à-go-go-related gene (hERG) potassium channel (human, UniProt Q12809)
# Assay: primary screen, population patch clamp on CHO cells stably expressing hERG
# human ether-à-go-go-related gene (hERG) potassium channel, sequence (Q12809 whole entry, looked up): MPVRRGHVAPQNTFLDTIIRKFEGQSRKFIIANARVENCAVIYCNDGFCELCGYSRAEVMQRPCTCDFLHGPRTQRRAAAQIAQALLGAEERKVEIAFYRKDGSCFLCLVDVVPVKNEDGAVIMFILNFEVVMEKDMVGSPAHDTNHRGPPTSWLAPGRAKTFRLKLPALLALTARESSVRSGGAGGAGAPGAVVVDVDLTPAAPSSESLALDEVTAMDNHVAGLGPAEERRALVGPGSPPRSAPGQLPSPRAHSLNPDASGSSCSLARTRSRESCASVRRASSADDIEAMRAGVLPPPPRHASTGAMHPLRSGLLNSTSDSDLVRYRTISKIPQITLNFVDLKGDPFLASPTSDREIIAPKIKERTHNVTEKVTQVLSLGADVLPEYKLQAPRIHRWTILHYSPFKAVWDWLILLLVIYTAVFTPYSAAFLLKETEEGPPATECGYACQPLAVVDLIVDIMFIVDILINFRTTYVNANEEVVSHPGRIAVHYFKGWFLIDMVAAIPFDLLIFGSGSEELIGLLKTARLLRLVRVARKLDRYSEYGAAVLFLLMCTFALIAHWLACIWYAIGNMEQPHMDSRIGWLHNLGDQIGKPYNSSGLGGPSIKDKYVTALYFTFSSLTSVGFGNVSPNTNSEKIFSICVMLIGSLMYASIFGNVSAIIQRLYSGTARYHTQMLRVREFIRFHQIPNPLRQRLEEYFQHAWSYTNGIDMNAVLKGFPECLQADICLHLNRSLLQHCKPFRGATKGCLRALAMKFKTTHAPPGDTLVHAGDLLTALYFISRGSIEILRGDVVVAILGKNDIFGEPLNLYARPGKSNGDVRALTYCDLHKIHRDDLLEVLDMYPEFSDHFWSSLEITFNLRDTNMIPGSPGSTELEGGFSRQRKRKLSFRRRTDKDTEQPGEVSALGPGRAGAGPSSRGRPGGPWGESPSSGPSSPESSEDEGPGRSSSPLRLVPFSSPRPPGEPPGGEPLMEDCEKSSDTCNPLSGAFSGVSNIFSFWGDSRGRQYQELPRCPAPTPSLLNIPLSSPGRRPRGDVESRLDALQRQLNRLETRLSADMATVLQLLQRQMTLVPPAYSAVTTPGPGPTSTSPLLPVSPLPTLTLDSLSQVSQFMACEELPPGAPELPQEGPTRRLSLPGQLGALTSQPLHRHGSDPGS
row,Structure (SMILES),"hERG current change (%, negative = inhibition) at 1uM"
1,Cc1c(C)c2c(OCC(=O)N[C@@H](C)C(=O)O)cc3c(c2oc1=O)CCC(C)(C)O3,13.2%
2,O=C(COc1ccccc1)N1CCN=C1SCc1ccc(F)cc1,-5.44%
3,Cc1nn(-c2ccccc2)c(Cl)c1/C=C1/C(=N)N2N=C(C(C)C)SC2=NC1=O,7.49%
4,CN(C1CCCCC1)S(=O)(=O)c1ccc(NC(=O)CCC(=O)O)cc1,4.75%
5,Cc1c(NC(=O)N(C)c2ccccc2)c(=O)n(-c2ccccc2)n1C,13.7%
6,COc1ccc2nc(C)c3c(c2c1)OC(C(C)(Cl)Br)C3 (stereo not drawn),-1.16%
7,CCn1c(=O)c(C(=O)Nc2ccccc2F)c(O)c2ccccc21,13.5%
8,CCN(CC)C(=O)/C=C/c1ccccc1,12%
9,O=C(Oc1cccc(-n2cnnn2)c1)c1ccccc1,7.35%
10,CCCCCC(=O)N/N=C(\C)c1ccc(Cl)cc1,4.63%
11,O=C(CN(Cc1ccco1)S(=O)(=O)c1ccccc1)N/N=C/c1cccc(O)c1,5.51%
12,N#Cc1ccc(Cn2ccnc2C(=O)Nc2ccccc2)cc1,-86.8%
13,CC(C)C(=O)Nc1ccc2c(c1)C(=O)N(CCC(=O)O)C2=O,15.7%
14,Cc1ccc(/C=N/NC(=O)c2cccc(S(=O)(=O)Nc3ccccc3Cl)c2)o1,15.9%
15,O=C(OCc1nnc(-c2ccccc2)o1)c1cc(S(=O)(=O)N2CCOCC2)c(Cl)cc1Cl,6.57%
16,CCOC(=O)c1[nH]ncc1CN1CCN(Cc2ccc(C)cc2)C(CCO)C1 (stereo not drawn),-9.93%
17,CCOC(=O)c1ccc(NC(=O)CCNS(=O)(=O)c2ccc3c(c2)oc(=O)n3C)cc1,6.23%
18,COc1cc(OC)cc(C(=O)N[C@H](C(=O)Nc2ccc3c(c2)OCO3)C(C)C)c1,11.4%
19,COc1ccc(Cl)cc1N1C(=O)CN(Cc2cc(OC)c(OC)c(OC)c2)C1=S,7.29%
20,CC1CCN(CC(O)COC2CC(C)CC(C)(C)C2)CC1.Cl (stereo not drawn),-12.7%
21,COc1ccc(C(=O)Nc2ccccc2C(=O)NCCN2CCOCC2)cc1OC,10.7%
22,OCCn1c(CSc2nnc(-c3ccco3)n2-c2ccccc2)nc2ccc(Cl)cc21,8.13%

row,Structure (SMILES),"hERG current change (%, negative = inhibition) at 1uM"
1,COc1ccc(-c2ccc3c(c2)S(=O)(=O)c2cccc(C(=O)NCCOc4ccccc4)c2C3=O)cc1OC,1.2%
2,Cc1cccc(N(C(=O)c2ccc(CN3CCOCC3)o2)C(C(=O)NC2CCCCC2)c2ccc(F)cc2)c1 (stereo not drawn),9.88%
3,COC(=O)CNc1nc(Cl)nc(NC2CCCCC2)n1,12.7%
4,CN1CCN(c2ccc(-c3ccnn3C(=O)Nc3ccccc3)cc2)CC1,-0.435%
5,O=C(CCS(=O)(=O)Cc1ccccc1)Nc1nnc(C(F)(F)F)s1,15.4%
6,CCOc1cc(C(=O)N=c2sccn2C)cc(Br)c1OC,14.1%
7,COc1ccc(NC(=O)NC2CCCCC2C)cc1 (stereo not drawn),9.34%
8,Cc1ccc(C(=O)N/N=C\c2c(C)nn(-c3ccccc3)c2Cl)cn1,2.32%
9,Cc1cc(C)cc(N2C(=O)N(c3ccccc3C)C3CS(=O)(=O)CC32)c1 (stereo not drawn),17.3%
10,N#Cc1cnc(Sc2ccccc2)nc1,5.13%
11,Nc1c(C(=O)N/N=C/c2ccc(OCc3ccccc3)cc2)cnn1-c1ccccc1,9.13%
12,CS(=O)(=O)Oc1ccc(/C=N/NC(=O)c2ccncc2)cc1,7.51%
13,O=[N+]([O-])c1cnc[nH]1,13.5%
14,C=CCO/N=C(/C)c1ccc(Oc2cnccn2)cc1,-21%
15,O=C(Nc1ccc2oc(-c3ccccc3F)nc2c1)c1ccco1,5.48%
16,COC(=O)c1cc(Br)c(=O)n(CCc2ccccc2)c1,3.82%
17,CCN(CC)CCn1c2c(c(SCC(=O)Nc3nc4ccccc4s3)nc1=O)CCC2,-22.8%
18,Cc1c(C(=O)Nc2nccs2)oc2ccc(F)cc12,14.5%
19,Cc1cccn2c(=O)c3cc(C(=O)NCCc4ccccc4)sc3nc12,0.776%
20,O=C(CCCOc1cccc(Br)c1)NC1CCC(O)CC1 (stereo not drawn),8.24%
21,CC(=O)c1ccc(N2CCN(C(=O)c3ccc4c(c3)OCO4)CC2)cc1,-14.4%
22,Cc1cc(C(=O)c2cnc(/N=C/N(C)C)s2)cc(C)c1O,5.23%

row,Structure (SMILES),"hERG current change (%, negative = inhibition) at 1uM"
1,COc1ccc(S(=O)(=O)N2CCOC23CCN(S(=O)(=O)c2ccccc2)CC3)cc1,8.63%
2,CCN(CC)CC(=O)Nc1cccc2c1C(=O)c1ccccc1C2=O,18.7%
3,Cc1cc(C)c(OCC(=O)Nc2ccc(NC(=O)c3ccco3)cc2)c([N+](=O)[O-])c1,14.8%
4,O=C(Nc1nnc(CC(=O)N2CCOCC2)s1)c1cccs1,7.54%
5,O=C(O)C(=O)O.O=C(c1ccccc1F)N1CCN(Cc2cccc(Cl)c2)CC1,-6.08%
6,O=C(CCS(=O)(=O)c1cccc2nonc12)N1CC(=O)N(CCc2ccccc2)C(=O)C1,7.63%
7,N#CCSc1nc2ccc(N3CCCCC3)cc2c(=O)n1Cc1ccccc1,13.7%
8,COc1cccc(C(=O)C[n+]2ccccc2/C=N/O)c1.[Br-],9.55%
9,O=C(CSc1ncccc1-c1nc2ccccc2[nH]1)Nc1ccc2c(c1)OCCO2,-3.2%
10,CNC(C)C#Cc1ccc2c(=O)c3cc(C)c(C)cc3oc2c1 (stereo not drawn),8.09%
11,Cc1ccc(NS(=O)(=O)c2ccc3c(c2)CC(=O)N3)c(C)c1,-2.48%
12,CC(C)(C)c1csc(NC(=O)Cn2c(=O)oc3ccccc32)n1,-5.9%
13,CN(CC(=O)NC1CCN(Cc2ccccc2)CC1)S(=O)(=O)c1ccc(Br)s1,9.14%
14,O=C(O)COCC(=O)NCc1nc(-c2ccc(C(F)(F)F)cc2)no1,16.4%
15,[N-]=[N+]=NCC/C=C\C1NS(=O)(=O)OCC1O (stereo not drawn),10.6%
16,COC(=O)C1=C(C)N(c2ccc(S(N)(=O)=O)cc2)C(=O)C1,6.08%
17,Cc1ccc(CNC(=O)CN2CCN(c3ccc(F)cc3)CC2)cc1,-8.38%
18,CN(CC(=O)Nc1ccc(F)c(F)c1F)C(=O)CC1OC(=O)c2ccccc21 (stereo not drawn),-5.19%
19,COc1cccc(CN2CC(C(=O)NCCCn3ccnc3C)CCC2=O)c1 (stereo not drawn),16.7%
20,O=C(NC1CC1)c1sccc1-n1cccc1,3.85%
21,CCC(=O)Nc1ccc(C(=O)NCc2ccccn2)cc1,12.7%
22,Cc1cc(F)ccc1S(=O)(=O)N(C(=O)c1ccncc1)c1ccc(OC(=O)c2ccncc2)cc1,5.64%

row,Structure (SMILES),"hERG current change (%, negative = inhibition) at 1uM"
1,CCOc1ccc(C(=O)C(C)OC(=O)Cn2c(C)csc2=O)cc1 (stereo not drawn),-1.43%
2,CCCn1nc(C(=O)OCC(=O)c2c(N)n(C)c(=O)n(C)c2=O)c2ccccc2c1=O,7.06%
3,O=C(Nc1ccc2nn(-c3ccc(F)cc3)nc2c1)c1cccnc1,13.3%
4,O=C(CN(C(=O)Cn1nnc(-c2ccc(F)cc2)n1)C1CCCC1)NC1CCCC1,5.86%
5,O=C(COc1ccccc1Cl)N1CCCC1,13.7%
6,COCCn1cc(C(=S)N2CCCCC2)c2ccccc21,11.9%
7,Cc1ccc[n+](CC(=O)Nc2ccc(C)c(C)c2)c1.[Cl-],14.5%
8,COc1ccccc1NC(=O)c1ccccc1-c1ccccc1C(=O)O,9.09%
9,CN(C[C@H](Cc1ccccc1)N(C[C@H](Cc1cccc2ccccc12)N(CCc1ccccc1)N=O)N=O)N=O.[Na+],10%
10,O=C(Nc1nccs1)C12CC3CC(C1)CC(C(=O)Nc1nccs1)(C3)C2,0.238%
11,Cc1nc2sc(-c3ccccc3)nn2c(=O)c1Br,9.37%
12,COc1cc(CN2CCN(c3cc(C)ccc3C)CC2)ccc1O,3.43%
13,FC(F)(F)c1ccc(C2[C@H]3CN(Cc4ccc(-c5ccccc5)cc4)[C@H](c4ccccc4)C34CC2(c2cccnc2)C4)cc1 (stereo partly drawn),12.9%
14,COc1ccc(-n2c(-c3ccc(C)cc3)n[nH]c2=S)cc1,14.5%
15,COc1ccc2c(Cl)c(C(=O)NCc3ccco3)sc2c1,0.841%
16,O=C(O)c1cc2c(cc1NC(=O)c1c(F)cccc1Cl)OCCCO2,7.51%
17,CCOC(=O)c1oc2ccc(OC)cc2c1NC(=O)CN1CCN(C)CC1.Cl,6.24%
18,O=C(CN1CCN(Cc2ccccc2)CC1)Nc1ccc([N+](=O)[O-])cc1C(=O)Nc1ccccc1F,-56.8%
19,CC(=O)NC1C(=O)N=C(SC(C)C(=O)Nc2cccc(Cl)c2)NC1=O (stereo not drawn),19.7%
20,CC(C)N(C)C(=O)CCc1nnc(CCc2c[nH]c3ccccc23)o1,8.81%
21,O=C(COC(=O)c1ccc(F)cc1F)Nc1ncccn1,-2.23%
